Data reported in publication PMC12136788.
The other results are listed elsewhere or left out.

T1: UNK ZnF1-3 (human, UniProt Q9C0B0 31-174)
T1 sequence: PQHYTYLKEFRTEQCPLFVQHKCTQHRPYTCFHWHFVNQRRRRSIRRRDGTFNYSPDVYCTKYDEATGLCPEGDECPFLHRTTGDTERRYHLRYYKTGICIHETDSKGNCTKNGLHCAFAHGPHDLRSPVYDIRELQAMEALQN

B1: 138044843_138045211_1185_CDS_ENSMUSG00000041642_ENSMUST00000075164|mouse|control|control (ssRNA)
RNA: GGGAGUUCUACAGUCCGACGAUCCAAGGCCAGCAGACCACAGUUGAUGGAGAUGCCCUCUUUGGCCCGUUCGCCGGUGGCCCCUGUCCGCUUCAGCCGCUCUGAGCCAGCCAAGUCCACGAAGUGAAACUUAGCAGUGAGAGUCAACAGAGGAUUGAGCAUCA
B2: 222898803_222900535_952_CDS_ENSG00000162819_ENST00000340934|human|control|control (ssRNA)
RNA: GGGAGUUCUACAGUCCGACGAUCUAGUUCAAUUGCUCGAGCAAUUGUUACUUCUUGAGCUUCAGCCUGACAUUGAAUAACGUAUGCUUCUAUGAGUCGUGACUCUAAAUCUCUUCCUUUUUCCGCAGGUGUAAUGAGUUUUGGCAACAGAGGAUUGAGCAUCA
B3: 89180194_89198816_634_3pUTR_ENSG00000156103_ENST00000286614|human|control|control (ssRNA)
RNA: GGGAGUUCUACAGUCCGACGAUCUCUUUAUACUGUAAGUGAUGUGCUUGUGCUGCCAUUUCUGUCCUGUCAAUGCAUAUCGCUUUCGACGAAUAUGAAAUUUGGAGCUACCUCUUGUCUGGUCAGGUACACCGCAUCGGGGCUCAACAGAGGAUUGAGCAUCA
B4: 12974608_12974966_472_CDS_ENSG00000213782_ENST00000358007|human|control|control (ssRNA)
RNA: GGGAGUUCUACAGUCCGACGAUCGUAUUUGAGAGCUCUCAAGUUGAAACCUUUCGUAUUUUCCAAGUGGUCAAUCAGUCGACCAGGAGUUGCUAUUAUUAUAUGUGGUUUUUUUGCAAGGGCCAAAGAUUGAGACAUUGAAUCCAACAGAGGAUUGAGCAUCA
B5: 25054733_25054853_448_ncRNA_ENSMUSG00000024163_ENSMUST00000126280|mouse|control|control (ssRNA)
RNA: GGGAGUUCUACAGUCCGACGAUCGGGGGCUAUCCUAAACUCACAGGUGCUAGUGUGAAGUCAAACAGAGCAGGAAGCUCGUGCAUUCUGACAUCCCAGCUCUGUUUCUGUCUCAUGUCAGGGGAUGGUAGACUAACUCAGGGACAACAGAGGAUUGAGCAUCA
B6: chr14:89327608:89327609:+_ENSG00000165533_ENST00000346301|hu_hu|FALSE|FALSE (ssRNA)
RNA: GGGAGUUCUACAGUCCGACGAUCUUCCUCAUAGAUUCUUGCAAUUCCACAGAGCAGGGUUACUUCUCCUGGAAACUUAUCUAAGCCUUGUUUGAAAAGAUUUAAAGCAGUCACAGGUUGAUCCAAUGAGACAUAAACUUUUGCCAACAGAGGAUUGAGCAUCA
B7: chr7:44244176:44244177:+_ENSG00000106636_ENST00000223369|hu_mus|hu_hu_hu_mus_False|38_98 (ssRNA)
RNA: GGGAGUUCUACAGUCCGACGAUCACUGUCGCUCCGGACGUAGACGUGGCAAAGAUACUCUUGUUCUUUGACAGAAGCUCUGCUGCCUUUCCCCGAGCGCUCCACAAUCAGUUGACUUGUAAAGGUCAUGAAUUCCUGCACACUCAACAGAGGAUUGAGCAUCA
B8: chr2:42509997:42509998:+_ENSG00000143924_ENST00000318522|hu_mus|hu_hu_hu_mus_True|28_38 (ssRNA)
RNA: GGGAGUUCUACAGUCCGACGAUCUCGCUGAGUCCUCUCCUCAUAAUUAAACAGGACUACCACUGAGGCGAUAAAAUAAACUAUCUCCCCUGUGGGAAGAAGGUAAACAUUAGCUCUACAGUCCUUUCCUCGAUAACCGUAUACCAACAGAGGAUUGAGCAUCA
B9: chr21:30248746:30248747:-_ENSG00000156239_ENST00000303775|hu_mus|FALSE|FALSE (ssRNA)
RNA: GGGAGUUCUACAGUCCGACGAUCGAGCGAUUGUUCAGCUGCCGGCAGCUCUUGUUUACUUCUGUGGCUUUCAGGACACUAGGACUUGCUGAACCUGAGGACUGACAGGGCUUCUUGGCCUGCUUGCCUGCAAAGUGCUGUGGUCAACAGAGGAUUGAGCAUCA
B10: 117632743_117632863_374_CDS_ENSMUSG00000038371_ENSMUST00000033058|mouse|control|control (ssRNA)
RNA: GGGAGUUCUACAGUCCGACGAUCGAUCUCUGCCUCAUAGAAAGUUAGACAUGAGCAGUAAUGUCGAUCUGAGUCAAUAUCUGUUAGGACCACCACAAAGAAUGUUGGCUGUUUCCGCUCUCUGGACAGGUGCCAUCCACCAGGCAACAGAGGAUUGAGCAUCA
B11: chr1:150203005:150203006:-_ENSG00000143401_ENST00000314136|hu_mus|FALSE|FALSE (ssRNA)
RNA: GGGAGUUCUACAGUCCGACGAUCAAGAUUUGGACAUUUCUCUGCCAGGACUUCCAAGCCUCCAGAAAUUAUAUUGUCACUAAGUUCCAACUUCCGGAGUUUAUUCAAGCUGGGAAGCCGGGCCAAGGAACUCAACUCCACGUUCAACAGAGGAUUGAGCAUCA
B12: chr10:102306293:102306294:+_ENSG00000166135_ENST00000299163|hu_mus|motif|central (ssRNA)
RNA: GGGAGUUCUACAGUCCGACGAUCAGCCCCCUUAUACCAGAAGUUCACAGUGAUGGUAAUUCCCCCAUUUAGUAAUGACUCGGUAUGGUGCCACCAGUACAUUGGGAUGUAAAGAACAUCCCCAGGGCCAACCACUGUCUCAUACAACAGAGGAUUGAGCAUCA
B13: chr6:41757443:41757444:+_ENSG00000214736_ENST00000398881|hu_mus|hu_hu_hu_mus_False|8_8 (ssRNA)
RNA: GGGAGUUCUACAGUCCGACGAUCGAACCGUGCAGAGGCAACAUCUCAGCCGACACUGGGGGAUGGGGGGGCAGUGGGGGGGGGUUCAGGCAAGGAGAGGGAGUCAACUUCAGCUGCCACUCAGGUAGCUGCCAUCAGUCACAGCAACAGAGGAUUGAGCAUCA
B14: chr1:165619138:165619139:+_ENSG00000143198_ENST00000367886|hu_hu|FALSE|FALSE (ssRNA)
RNA: GGGAGUUCUACAGUCCGACGAUCUUUGUACUUCUUGCGGGCCUUGGAAACAUUGAUGGCUAGGUGGGCCACCAUUAUAAAGCUGGCAGCACCAGUUAGAAGCACAAAACCAUAUUCCUUAGAGAGGACAGCCAUCUUGCGUCUCAACAGAGGAUUGAGCAUCA

Biological target: T1, UNK ZnF1-3
Assay: nsRBNS (natural sequence RNA bind-n-seq); RBNS binding buffer (assumed for nsRBNS): 25 mM Tris pH 7.5, 150 mM KCl, 3 mM MgCl2, 0.01% Triton X-100, 500 ug/ml BSA, 20 U/ml SUPERase-In, 4 C; UNK is unkempt and MSI1 is Musashi-1; names of the RNAs are library labels; protein concentration not given here; high values mean tight binding

Row | Binder | binding signal [enrichment R]
1 | B1 | 0.73
2 | B2 | 0.681
3 | B3 | 0.412
4 | B4 | 1.1
5 | B5 | 1.12
6 | B6 | 1.21
7 | B7 | 0.747
8 | B8 | 1.05
9 | B9 | 0.994
10 | B10 | 1.52
11 | B11 | 0.683
12 | B12 | 1.3
13 | B13 | 2.36
14 | B14 | 1.02
